Results published in patent US20200407441A1 (I MAB BIOPHARMA US, published 2020).

Tests used:
[1] = target: T1, Tag1-CD47 (Cisbio HTRF kit) (UniProt Q08722 partial chain); test: HTRF competition: blocks Tag1-CD47 / Tag2-SIRPα interaction (Cisbio)
T1 construct: Kit reagent

[2] = target: T2, recombinant GMCSF R alpha protein (R&D Systems) (human, UniProt P15509 23-320, limits assumed); test: ELISA, GMCSF R alpha coated at 2 ug/mL
T2 construct: Bought reagent; also called human GMCSF receptor protein; human GM-CSF receptor
T2 sequence (looked up): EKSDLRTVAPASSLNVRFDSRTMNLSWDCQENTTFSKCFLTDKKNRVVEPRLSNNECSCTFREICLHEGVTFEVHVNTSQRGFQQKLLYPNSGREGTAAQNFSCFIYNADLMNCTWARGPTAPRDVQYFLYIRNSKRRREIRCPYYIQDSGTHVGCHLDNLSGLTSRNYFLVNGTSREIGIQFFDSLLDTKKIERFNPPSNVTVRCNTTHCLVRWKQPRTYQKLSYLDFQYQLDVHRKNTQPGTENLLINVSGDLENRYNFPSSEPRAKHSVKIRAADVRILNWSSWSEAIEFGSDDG

T1 sequence (Q08722 19-139 limits assumed): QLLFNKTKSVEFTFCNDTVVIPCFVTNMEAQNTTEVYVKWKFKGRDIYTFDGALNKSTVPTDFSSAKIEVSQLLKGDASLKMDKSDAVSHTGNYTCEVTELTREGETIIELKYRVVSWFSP

B1: fusion protein 1F8-GMCSF (other)
light: DIVMTQSPDSLAVSLGERATINCKSSQSVLYSSNNRNYLAWYQQKPGQPPKLLINQASTRASGVPDRFSGSGSGTEFTLIISSLQAEDVAIYYCQQYYTPPLAFGGGTKLEIKRTVAAPSVFIFPPSDEQLKSGTASVVCLLNNFYPREAKVQWKVDNALQSGNSQESVTEQDSKDSTYSLSSTLTLSKADYEKHKVYACEVTHQGLSSPVTKSFNRGEC
heavy: EVQLVESGGGLVKPGGSLRLSCAASGFTFSNAWMNWVRQAPGKGLEWVGRIKRKTDGETTDYAAPVKGRFSISRDDSKNTLYLQMNSLKTEDTAVYYCAGSNRAFDIWGQGTMVTVSS[in this place about 450 residues with a human IgG1 Fc]
notes: also called 1F8-GMCSF fusion protein
- IC50 [1]: 1.3 nM
- binding result [2]: binds
